Data reported in PubChem BioAssay AID360 (National Center for Advancing Translational Sciences (NCATS), 2006).
The whole screen tested about 48,000 compounds, of which about 550 (1.1%) were called active. About 4% were inconclusive and are not listed. Rule as the data show it: active = potency below about 15 µM; inconclusive = mostly about 16 µM to 33 µM; inactive = weaker than that. The list shows a part of the results.

Target: Lysosomal acid glucosylceramidase (Homo sapiens) (UniProt P04062)
Assay: Glucocerebrosidase;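 also: the screen sought inhibitors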
Conditions: purified enzyme, resorufin glucoside fluorescence (screen aimed at inhibitors), 20 min; series mostly up to 77 µM
Procedure, shortened: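 Normal human glucocerebrosidase (0.2 nM final) was assayed with resorufin β-D-glucopyranoside (30 uM final) in 50mM citric acid/KH2PO4, 10mM sodium taurocholate, 0.01% tween-20, pH 5.9. Compounds were titrated; fluorescence (Ex 548, Em 600) read after 20 min at RT.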
Potency is read from the fitted curve at half-maximal effect.

Chain of UniProt P04062 (P04062 whole entry, looked up): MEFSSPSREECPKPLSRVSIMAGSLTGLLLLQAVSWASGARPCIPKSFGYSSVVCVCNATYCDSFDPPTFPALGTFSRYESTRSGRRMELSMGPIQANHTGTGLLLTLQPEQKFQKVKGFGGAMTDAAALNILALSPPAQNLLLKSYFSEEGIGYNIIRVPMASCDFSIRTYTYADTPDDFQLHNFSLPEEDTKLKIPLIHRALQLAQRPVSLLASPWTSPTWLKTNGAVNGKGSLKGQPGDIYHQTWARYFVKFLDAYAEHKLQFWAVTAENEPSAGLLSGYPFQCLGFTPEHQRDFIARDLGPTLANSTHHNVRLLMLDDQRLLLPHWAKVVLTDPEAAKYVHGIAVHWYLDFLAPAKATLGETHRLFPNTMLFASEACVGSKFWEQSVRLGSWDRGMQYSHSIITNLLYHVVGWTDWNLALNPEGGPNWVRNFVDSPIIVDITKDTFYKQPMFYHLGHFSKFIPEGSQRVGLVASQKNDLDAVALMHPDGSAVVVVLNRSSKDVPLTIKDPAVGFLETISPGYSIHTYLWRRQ

Potency, inactive:
CCOc1ccc(-c2nnn(CC(=O)c3ccc4c(c3)OCCO4)n2)cc1OCC > 76.9 µM
CCOC(=O)C1CCCN(c2c(NCCCN(C)Cc3ccccc3)c(=O)c2=O)C1 (stereo not drawn) > 76.9 µM
CCN1C(=O)C(NC(C)=O)c2cc(Br)ccc21 (stereo not drawn) > 76.9 µM
Cc1ccc(Cl)cc1N1CCN(S(=O)(=O)c2c(C)[nH]c(=O)[nH]c2=O)CC1 > 76.9 µM
O=C(Cc1cccs1)N(c1ccc(Cl)cc1)C1C=CS(=O)(=O)C1 (stereo not drawn) > 76.9 µM
Cc1cnc(-c2nnc(N(C)C(=O)c3ccccn3)s2)cn1 > 76.9 µM
COc1ccccc1C1CC(c2ccc(F)cc2)Nc2ncnn21 (stereo not drawn) > 76.9 µM
COc1ccc(CN(CC(=O)NCc2ccco2)C(=O)CCC(=O)Nc2nccs2)cc1 > 76.9 µM
O=C(NCc1cccnc1)c1c(F)c(F)c(F)c(F)c1F > 76.9 µM
CSC1CCCCC1(O)CSc1nc2c(cc1C#N)CCCC2 (stereo not drawn) > 76.9 µM
CCCCCn1c(SCC2CCCO2)nc2cc(C(=O)N3CCC(C(N)=O)CC3)ccc2c1=O (stereo not drawn) > 76.9 µM
CCCCn1c(CN2CCN(C(=O)OCC)CC2)nc2c1c(=O)n(C)c(=O)n2C > 76.9 µM
O=C(c1ccco1)N1CCN(S(=O)(=O)c2ccc(Br)s2)CC1 > 76.9 µM
COc1ccc(-c2cc(C(F)(F)F)nc(S(C)(=O)=O)n2)cc1OC > 76.9 µM
COC(=O)c1cc(C(=O)OC)cc(N2C(=O)CC(N3CCN(c4ccccc4)CC3)C2=O)c1 (stereo not drawn) > 76.9 µM
Cc1ccnc(SCC(=O)N2CCN(c3cccc(Cl)c3)CC2)n1 > 76.9 µM
Cc1cc(C(=O)CSc2nc3ccccc3n2CCC#N)c(C)n1Cc1cccs1 > 76.9 µM
Cc1nc2nc3c(cn2n1)C(=O)CC(c1ccccc1)C3 (stereo not drawn) > 76.9 µM
Cc1ccc(C2C(C(=O)c3cccs3)=C(O)C(=O)N2CCN2CCOCC2)o1 (stereo not drawn) > 76.9 µM
O=C(Nc1cnccn1)c1cccc(C(F)(F)F)c1 > 76.9 µM
CCC(CC)C(=O)Nc1c2c(nn1-c1ccc(OC)cc1)CS(=O)(=O)C2 > 76.9 µM
O=c1c2c(nc3nc(CCc4ccccc4)[nH]n13)CCC2 > 76.9 µM
COCCN(CCOC)S(=O)(=O)c1ccc(C(=O)NCCCN2CCOCC2)cc1 > 76.9 µM
O=C(c1ccc(=O)[nH]c1)N(Cc1ccco1)C1(C(=O)NC2CCCCC2)CCCCC1 > 76.9 µM
CC(C)CN(C#N)c1nc(N2CCOCC2)nc(N2CCOCC2)n1 > 76.9 µM
CCOC(=O)CC(=O)CSc1ccc2nnc(-c3ccc(C)cc3)n2n1 > 76.9 µM
COc1cccc(-n2nnnc2SCC(=O)NCCc2ccccc2)c1 > 76.9 µM
NC(=O)C1CCN(C(=S)c2cccs2)CC1 > 76.9 µM
Cc1ccc(CNC(=O)CCCNC(=O)c2ccc(Cl)cc2)n1C > 76.9 µM
C/C(Nc1cccc(F)c1)=C(/C#N)C(N)=O > 76.9 µM
CC1=CC(=O)OC1Cc1ccncc1 (stereo not drawn) > 76.9 µM
COc1ccc2[nH]c(=O)c(CN(C)C(=O)c3ccncc3)cc2c1 > 76.9 µM
COc1ccccc1NC(=O)C1=C(C)Nc2nnnn2C1c1ccccc1OC (stereo not drawn) > 76.9 µM
O=C(c1ccccc1)c1coc2ccc(O)c(CN3CCOCC3)c12 > 76.9 µM
O=C(CCN1C(=O)c2ccccc2C1=O)Nc1ccc(-c2nc3ccccc3o2)cc1 > 76.9 µM
OCCN(Cc1ccccc1)Cc1ccccc1F > 76.9 µM
CCNc1nc(NCC)nc(OCCOC(=O)c2ccccc2)n1 > 76.9 µM
C=CCOn1c(=O)c(=O)n(OCc2ccccc2)c2ccccc21 > 76.9 µM
CCn1c2ccccc2c2nnc(SCC(=O)NCCOC)nc21 > 76.9 µM
CCCCOc1ccc(OCCNS(=O)(=O)N(C)C)cc1 > 76.9 µM
COC(=O)c1sc(NC(=O)c2ccc(Cn3cc(Cl)cn3)o2)c(C#N)c1C > 76.9 µM
COc1ccccc1N(CC(=O)NC1CCCC1)C(=O)CCC(=O)Nc1cc(C)on1 > 76.9 µM
O=C(NCCc1ccccc1)C1CCN(S(=O)(=O)c2cccc3nsnc23)CC1 > 76.9 µM
C=CCN1CCN(C(c2cc(OC)ccc2OC)c2nnnn2CC2CCCO2)CC1 (stereo not drawn) > 76.9 µM
Cc1ccc(NCc2nnc(SCC(=O)c3ccc4c(c3)OCCO4)o2)c(C)c1 > 76.9 µM
COc1cccc(NC(=O)c2ccccc2-c2nc(-c3ccc(F)cc3)no2)c1 > 76.9 µM
O=S(=O)(NCc1ccco1)N1CCCCCC1 > 76.9 µM
C=CCc1c(C)c(C#N)c2nc3ccccc3n2c1NCCN(C)C > 76.9 µM
COCC(=O)Nc1nc2n(n1)C(c1ccc(Cl)cc1)CC(c1ccc(OC)cc1)N2 (stereo not drawn) > 76.9 µM
Cc1csc(=Nc2ccc(S(=O)(=O)N3CCOCC3)cc2)n1Cc1ccco1 > 76.9 µM
CCn1c(SCC(=O)c2ccc(C)cc2)nnc1-c1ccoc1C > 76.9 µM
CCOC(=O)c1oc2ccccc2c1NC(=O)c1ccc2c(c1)OCO2 > 76.9 µM
CCN(CC(=O)Nc1ccc2c(c1)OCO2)Cc1nc2ccccc2c(=O)[nH]1 > 76.9 µM
CCOC(=O)C1CCN(CC(=O)c2c(C)[nH]c3cc(C)ccc23)CC1 > 76.9 µM
CC(=O)Nc1ccc(N2C(=O)CC(N3CC(C)OC(C)C3)C2=O)cc1 (stereo not drawn) > 76.9 µM
COc1cccc(NC(=O)CSc2nnnn2C(C)C)c1 > 76.9 µM
CCOC(=O)C1=C(C)NC(=O)NC1c1ccoc1 (stereo not drawn) > 76.9 µM
COC(=O)c1nc(-c2ccccc2)n[nH]1 > 76.9 µM
Nc1ncnc2c1ncn2CCN1CCCCC1 > 76.9 µM
COc1cc(-c2n[nH]c(=O)o2)cc(OC)c1OC > 76.9 µM
CCN(CC)CCCn1c(=S)[nH]c2ccc(Cl)cc2c1=O > 76.9 µM
COc1cccc(CC(=O)NCC2COc3ccccc3O2)c1OC (stereo not drawn) > 76.9 µM
CCOC(=O)CNC(=O)CSc1nnc(-c2cccc(OC)c2)n1CC > 76.9 µM
O=C(O)CCC(=O)N1CCc2cc(S(=O)(=O)NC3CCCC3)ccc21 > 76.9 µM
CCCC(=O)Nc1cc(C)c(NC(=O)Cc2ccccc2)cn1 > 76.9 µM
O=C(NCCCN1CCN(Cc2ccccc2Cl)CC1)Nc1ccccc1 > 76.9 µM
O=C(CCCOc1ccccc1)Nc1nccs1 > 76.9 µM
O=C(O)CN(Cc1ccccc1)S(=O)(=O)c1ccc(F)cc1 > 76.9 µM
c1ccc(-c2cnnc(SCc3cn4cccnc4n3)n2)cc1 > 76.9 µM
Clc1ccc(CSc2nnc(-c3ccncc3)o2)cc1 > 76.9 µM
CN1CCN(C(=O)c2cc(-c3ccccc3)on2)CC1 > 76.9 µM
Cc1cc(C)n(-c2ccc(C(=O)OCn3nnc4ccccc4c3=O)cc2)n1 > 76.9 µM
CCc1cc2c(N3CCN(c4nnc(CC)s4)CC3)ncnc2s1 > 76.9 µM
Cc1ccc(C(=O)OCC(=O)c2ccc(Cl)s2)s1 > 76.9 µM
Cc1cc2c(c(=O)n1Cc1cccnc1)C(c1ccc(F)cc1)C(C#N)=C(N)O2 (stereo not drawn) > 76.9 µM
O=C(c1cn(-c2ccccc2)nc1-c1ccccc1)N1CCOCC1 > 76.9 µM
Cn1c(Br)nc2c1c(=O)n(CC(O)COc1ccccc1)c(=O)n2C (stereo not drawn) > 76.9 µM
CC(C)c1c(O)nc(SCc2ccccc2)[nH]c1=O > 76.9 µM
O=C(CN1C(=O)NC2(CCCCCC2)C1=O)N1CCC(Cc2ccccc2)CC1
Cc1cccc(N2CCN(C(=O)CCNC(=O)Cn3ccc4ccccc4c3=O)CC2)c1C > 76.9 µM
O=c1[nH]n(-c2ccccn2)c(=O)c2ccccc12 > 76.9 µM
CC(=O)OCC1OC(n2ccc(=O)[nH]c2=O)C(O)C1O (stereo not drawn) > 76.9 µM
CC1CC(C)CN(C(=O)CCCn2c(=S)[nH]c3ccccc3c2=O)C1 (stereo not drawn)
COc1ccc(-c2cc3nc(C)cc(NCCO)n3n2)cc1 > 76.9 µM
O=C(Cc1cccs1)NCc1ccc(F)cc1 > 76.9 µM
O=c1c2oc3ccccc3c2ncn1Cc1ccccc1F > 76.9 µM
CC(=O)Nc1nc2n(n1)C(c1ccc(Cl)cc1)C=C(C)N2 (stereo not drawn) > 76.9 µM
COc1ccc(CNC(=O)C2COc3ccccc3O2)c(OC)c1 (stereo not drawn) > 76.9 µM
COc1ccc(C)cc1S(=O)(=O)Nc1cccnc1 > 76.9 µM
CC1(C)CC(=O)c2cc(C(=O)Nn3cnnc3)c(=O)n(-c3ccccc3)c2C1 > 76.9 µM
CCCOC(=O)CCc1n[nH]c(=O)[nH]c1=O > 76.9 µM
c1ccc2c(c1)CCCn1nnnc1-2 > 76.9 µM
COc1ccc(-c2nnc(SCC(=O)Nc3cc(C)on3)n2N)cc1OC > 76.9 µM
